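Each compound was tested at five concentrations against cells in 96-well plates for 48 hours. At the GI50, growth is halved. At the TGI there is no net growth.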
System: NCI-H322M lung
Experiment: NCI-60 cell line screen, 48 h

Row | SMILES | GI50 [µM] | TGI [µM]
1 | O=C(Nc1ccc(OCC(=O)c2ccccc2)cc1)Nc1ccc(Cl)c(C(F)(F)F)c1 | 3.86 | > 100
2 | CCn1c(SCC(=O)Nc2ccc(-c3nc4ccccc4[nH]3)cc2)nc2ccccc2c1=O | 1.7 | 3.65
3 | COc1ccc2nc(Cl)c(-c3cc(-c4ccccc4)nc(=O)[nH]3)cc2c1 | 17 | 55.2
4 | O=C1Nc2cc(-c3ccc(NS(=O)(=O)c4ccc([N+](=O)[O-])cc4)cc3)ccc2/C1=C/c1ccc[nH]1 | 20.5 | > 100
